Data on 55 molecules can be found in PMC4336329 (PLoS ONE, 2015).

In all, about 310,000 compounds went through this assay and about 14,000 (4.5%) showed an effect of 50% or more. Effects have a minus sign here. Some of the results follow.
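Also: peak tail current of the secondary pulse compared with the same well before compound.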

human ether-à-go-go-related gene (hERG) potassium channel, sequence (Q12809 whole entry, looked up): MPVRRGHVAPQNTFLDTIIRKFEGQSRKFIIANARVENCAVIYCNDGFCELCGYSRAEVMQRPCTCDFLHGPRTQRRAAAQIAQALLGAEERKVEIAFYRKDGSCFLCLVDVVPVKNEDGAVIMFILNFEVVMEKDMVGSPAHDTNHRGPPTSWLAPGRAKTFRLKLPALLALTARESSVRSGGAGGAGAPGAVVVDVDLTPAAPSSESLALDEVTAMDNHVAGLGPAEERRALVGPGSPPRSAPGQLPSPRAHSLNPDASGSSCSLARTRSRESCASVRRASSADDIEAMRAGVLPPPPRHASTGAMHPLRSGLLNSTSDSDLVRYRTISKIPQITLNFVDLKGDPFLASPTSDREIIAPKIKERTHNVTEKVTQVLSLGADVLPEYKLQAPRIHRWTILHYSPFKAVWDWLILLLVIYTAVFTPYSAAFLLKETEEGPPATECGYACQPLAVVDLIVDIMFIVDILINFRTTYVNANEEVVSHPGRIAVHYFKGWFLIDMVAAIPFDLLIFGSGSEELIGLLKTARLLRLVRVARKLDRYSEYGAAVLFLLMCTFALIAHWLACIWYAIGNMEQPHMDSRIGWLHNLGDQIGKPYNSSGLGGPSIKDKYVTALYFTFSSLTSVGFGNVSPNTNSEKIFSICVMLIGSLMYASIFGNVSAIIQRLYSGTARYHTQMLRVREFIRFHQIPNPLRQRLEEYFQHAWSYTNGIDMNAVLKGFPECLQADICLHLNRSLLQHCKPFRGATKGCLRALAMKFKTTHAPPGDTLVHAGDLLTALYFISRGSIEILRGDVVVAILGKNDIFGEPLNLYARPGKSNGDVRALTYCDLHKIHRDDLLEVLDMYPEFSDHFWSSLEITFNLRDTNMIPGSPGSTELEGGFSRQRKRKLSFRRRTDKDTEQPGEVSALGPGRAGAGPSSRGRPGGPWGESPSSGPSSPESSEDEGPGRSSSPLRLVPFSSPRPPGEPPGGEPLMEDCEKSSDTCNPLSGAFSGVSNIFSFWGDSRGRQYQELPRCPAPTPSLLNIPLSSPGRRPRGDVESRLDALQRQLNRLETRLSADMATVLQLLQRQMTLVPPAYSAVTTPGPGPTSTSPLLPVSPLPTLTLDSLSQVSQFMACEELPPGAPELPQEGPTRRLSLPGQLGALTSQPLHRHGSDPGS

This assay has as its target human ether-à-go-go-related gene (hERG) potassium channel (human, UniProt Q12809). Kind of assay: primary screen, population patch clamp on CHO cells stably expressing hERG.
Turning to `COc1ccc(CCNC(=O)CN(c2ccc(OC)cc2)S(C)(=O)=O)cc1`, the “hERG current change (%, negative = inhibition) at 10uM” value is recorded as 37.3%.
For `Cc1ccc2nc(SCC(=O)N3CCCC3)nc(=O)n2c1`, the “hERG current change (%, negative = inhibition) at 10uM” value was -0.651%.
To `Cc1cc(C)c(S(=O)(=O)Nc2ccccc2-c2ccccc2)c(C)c1` belongs 6.6%.
As for `COc1ccc2c(c1)c1ccccc1n2C`, the figure is 11%; as for `Cc1ncc(CN2CCC(CO)(CCOc3ccccc3)CC2)s1`, -70.1%.
As for `O=C(CCc1nc2sc3c(c2c(=O)[nH]1)CCCC3)NCCc1ccc(F)cc1`, the figure is 3.25%; as for `C=CCn1c(=O)c2c(nc3n2CCN3c2cccc(Cl)c2C)n(C)c1=O`, -15%.
Consider `O=C(CSc1ccc2ccccc2n1)c1ccc2c(c1)OCO2`, for which the “hERG current change (%, negative = inhibition) at 10uM” value is listed as -11.6%.
In the case of `COc1ccccc1CNC(=O)C1CCCN(S(=O)(=O)c2cnc[nH]2)C1` (stereo not shown), the “hERG current change (%, negative = inhibition) at 10uM” value is listed as 1.48%.
As for `CCC/C(O)=C1\C(=O)CC(C)(C)CC1=Nc1ccc(OC)cc1`, the figure is -8.55%; as for `COc1ccc(-n2c(SCC(=O)NCC3CCCO3)nc3ccccc32)cc1` (stereo not shown), -17.7%; as for `O=C(CCn1c(=O)oc2ccc(Cl)cc21)N1CCN(Cc2ccccc2)CC1`, -35.8%.
Consider `Cc1ccc(C(=O)NC(=O)OCCn2c(C)cnc2[N+](=O)[O-])cc1`, for which the “hERG current change (%, negative = inhibition) at 10uM” value was determined as 4.69%.
As for `Cc1cc(C)n(-c2ccnc3cc(Cl)ccc23)n1`, the figure is 13.4%.
With `COc1ccc(CN(C#N)c2nc(C)cc(C)n2)cc1`, the “hERG current change (%, negative = inhibition) at 10uM” value is listed as 14.1%.
Consider `NS(=O)(=O)c1cc(C(=O)OCCNC(=O)c2ccccc2)c(Cl)cc1Cl`, for which the “hERG current change (%, negative = inhibition) at 10uM” value was -2.33%.
On to `CC(C)(C)c1ccccc1NC(=O)NC1CCN(Cc2c(F)cccc2Cl)CC1`, for which the “hERG current change (%, negative = inhibition) at 10uM” value was found to be 6.82%.
As for `COc1ccccc1C(=O)Oc1ccc(C(C)(C)C)cc1`, the figure is -6.17%; as for `CC12CCC(C(=O)NCc3ccccc3Cl)(OC1=O)C2(C)C` (stereo not shown), -6.52%.
Consider `O=C1C2C(c3ccccc3)C=CC(c3ccccc3)C2C(=O)N1c1ccncc1` (stereo not shown), for which the “hERG current change (%, negative = inhibition) at 10uM” value turned out to be 6.13%.
`COc1ccc(-c2csc(NC(=O)Cc3ccccc3F)n2)c(OC)c1`: the “hERG current change (%, negative = inhibition) at 10uM” value is given as 28.2%.
For `CC(=O)[C@H]1[C@H](c2cccc(Cl)c2)C(C#N)(C#N)[C@@H]2c3ccccc3C=CN21`, the “hERG current change (%, negative = inhibition) at 10uM” value is recorded as 12.8%.
As for `O=C(Cc1ccc(Cl)cc1)Nc1ccccn1`, the “hERG current change (%, negative = inhibition) at 10uM” value stood at 12.4%.
With `COc1ccc(CC2(CO)CCN(Cc3cccc4nccnc34)CC2)cc1`, the “hERG current change (%, negative = inhibition) at 10uM” value is -70.9%.
To `Cc1ccc(OCCCC(=O)NC2CCCCC2)cc1` belongs 7.17%.
As for `O=C(O)CC(NC(=O)c1cccc([N+](=O)[O-])c1)c1ccc2c(c1)OCO2` (stereo not shown), the figure is 18.1%; as for `CCCCCCCCNC(=O)CC(NS(=O)(=O)c1ccc(NC(C)=O)cc1)C(C)C` (stereo not shown), 5.32%; as for `CC1CCC(=NNC(=O)Cc2cccn2C)CC1` (stereo not shown), 3.51%.
As for `Nc1c(S(=O)(=O)c2cc(Cl)ccc2Cl)c2nc3ccccc3nc2n1CCN1CCOCC1`, the figure is -15.3%.
`CCOc1ccc(CCNS(=O)(=O)c2c(C)n[nH]c2C)cc1OCC`: the “hERG current change (%, negative = inhibition) at 10uM” value was 3.92%.
To `COc1ccc(NC(=O)C2CCN(C(=O)Cc3ccccc3)CC2)cc1OC` belongs 17.1%.
As for `CC1CCCN(CCCNC(=O)c2cn(C)c3ccc(S(=O)(=O)N(C)C4CCCCC4)cc3c2=O)C1` (stereo not shown), the figure is -71.4%; as for `C#CC(C)(C)NC(=O)CSc1nc2c(c(=O)n(C)c(=O)n2C)n1CCCC`, -9.58%.
For the molecule `Cc1cccc(NC(=O)c2cc(S(=O)(=O)N3CCc4ccccc43)cn2C)c1C`, the “hERG current change (%, negative = inhibition) at 10uM” value came to 6.95%.
For `Cc1nc2sc(C(c3cccs3)N3CCC(C(N)=O)CC3)c(O)n2n1` (stereo not shown), the “hERG current change (%, negative = inhibition) at 10uM” value came to 22.1%.
As for `CN(Cc1ccccc1)C(=O)N[C@@H](Cc1ccccc1)C(=O)O`, the figure is -1.29%.
Take `CCC(=O)N1CCc2cc(S(=O)(=O)CCC(=O)Nc3ccc(C(C)=O)cc3)ccc21`: the “hERG current change (%, negative = inhibition) at 10uM” value is -16.5%.
As to `COc1ccc(S(=O)(=O)N2CCOC23CCN(S(=O)(=O)c2ccc([N+](=O)[O-])cc2)CC3)cc1`, the “hERG current change (%, negative = inhibition) at 10uM” value is reported as -62%.
To `CCn1cc(C(=O)OCC(=O)Nc2c(C)cccc2C)c(=O)c2ccc(C)nc21` belongs 18.2%.
To `CCOC(=O)c1sc(NC(=O)c2ccccc2F)c(C(N)=O)c1C` belongs 6.79%; to `COc1ccc(-c2cc(=O)c3c(O)cc(O[C@@H]4O[C@H](CO[C@@H]5O[C@@H](C)[C@H](O)[C@@H](O)[C@H]5O)[C@@H](O)[C@H](O)[C@H]4O)cc3o2)cc1O`, 28.4%; to `O=C(CSc1nnc(-c2ccc(O)cc2)o1)Nc1ccccc1`, -15.6%.
As for `O=c1cc(C(F)(F)F)nc(SCc2cccnc2)[nH]1`, the figure is 16.9%.
Turning to `CC1=C(C)CC(C(=O)NCc2ccc3c(c2)OCO3)C(C(=O)O)C1` (stereo not shown), the “hERG current change (%, negative = inhibition) at 10uM” value was 5.59%.
`CC1=NC(C)Cc2ccccc21.Cl` (stereo not shown): the “hERG current change (%, negative = inhibition) at 10uM” value came out at 25.5%.
In the case of `CC(NC(=O)COC(=O)CCc1nc(=O)c2ccccc2n1C)c1ccccc1` (stereo not shown), the “hERG current change (%, negative = inhibition) at 10uM” value is on record as 18.7%.
On to `C=CCNc1cc(C)oc(=O)c1C(=O)CCC`, for which the “hERG current change (%, negative = inhibition) at 10uM” value is given as -1.54%.
For the molecule `CCOc1ccc(N2C(=O)CC(NC3CCN(C(=O)c4ccc(F)cc4)CC3)C2=O)cc1` (stereo not shown), the “hERG current change (%, negative = inhibition) at 10uM” value was -27.1%.
To `CN1CCC(=O)N([C@H](CSc2ccc(Br)cc2)Cc2ccccc2)CC1` belongs -64.8%; to `CCCNC(=S)N1CCN(c2nc(C)nc3sc4c(c23)CCCC4)CC1`, -31.5%.
As for `CN(Cc1ccccc1)C(=O)c1nc[nH]c1C(=O)N(C)Cc1ccccc1`, the figure is 1.69%; as for `Cc1ccc(NC(=O)CCC(=O)c2cccs2)cc1`, -1.29%.
As for `Cc1cc(Oc2ccc(=O)[nH]n2)nc(Cl)n1`, the figure is 5.09%.
Regarding `O=C(CNC(=S)N(CCCN1CCOCC1)Cc1cccs1)NCCCN1CCOCC1`, the “hERG current change (%, negative = inhibition) at 10uM” value amounted to 15.1%.
As for `O=C(CSc1nnc(CNC(=O)c2c(F)cccc2F)o1)Nc1ccc2c(c1)OCO2`, the figure is 16.7%.
